Laboratory results reported in PubChem BioAssay AID504832 (National Center for Advancing Translational Sciences (NCATS), 2011).
The campaign covered roughly 310,000 compounds. About 18,000 (5.8%) were called active. The inconclusive results got no clear call from the source; some entries with a clear call stand among them for comparison. Calls follow the shape of the dose curve; as a rule, active = well fitted inhibition curve with a large enough effect; inconclusive = small, poorly fitted or top-dose-only effect, or another doubt; inactive = no such curve, though single readings can be large or run the other way. Potencies of inconclusive entries are left out as doubtful fits.

Test: Primary qHTS for delayed death inhibitors of the malarial parasite plastid, 48 hour incubation
Settings: P. falciparum luciferase growth in erythrocytes; series mostly up to 28.7 µM; activity change, negative = inhibition: at the top concentration
Procedure, shortened: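 Luciferase-expressing P. falciparum in infected erythrocytes (2% hematocrit, 0.1% parasitemia final) in RPMI 1640/0.5% Albumax were exposed to compound for 48 hours at 37 C, 5% CO2; growth read as luminescence.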
% is scaled to controls: 0 for no effect and ±100 for the full control effect; potency is read from the fitted curve at half-maximal effect; tags tell the direction and shape of the fitted curve.

Structure (SMILES)	activity change, negative = inhibition	Potency
COc1ccccc1-c1nnc(SCC(=O)Nc2ccc(N3CCOCC3)cc2)n1C	inactive: 5.13%	–
COCC(=O)Oc1c(S(=O)(=O)c2ccc(C)cc2)c(C)nn1C(C)(C)C	inactive: 20.2%	–
COc1ccc(Cn2c(O)c(/C=N/NC(=O)c3ccccc3O)c(=O)[nH]c2=O)cc1	inactive: -1.68%	–
COC(=O)c1ccccc1NC(=O)CN1CCC(NC(=O)c2ccccc2C)CC1	–	inconclusive [inhibitor, partial curve]
O=C(COC(=O)c1cc(S(=O)(=O)N2CCCCC2)ccc1N1CCOCC1)NCCc1ccc(F)cc1	–	inconclusive [inhibitor, single point]
CCOc1ccc(S(=O)(=O)N2CCCCC2)cc1NC(=O)CN1CCCC1c1cccs1 (stereo not given)	–	active: 4.65 µM
COc1ccc(CCNC(=O)CSc2nnc3c(n2)[nH]c2ccc(F)cc23)cc1OC	inactive: -14.1%	–
Cn1c(O)c(C2=NNC(c3ccc(Cl)cc3)C2)c(=O)n(C)c1=O (stereo not given)	–	active: 13.1 µM
CCCN(CC(=O)Nc1ccccc1C)C(=O)CCl	–	inconclusive [inhibitor, full curve, poor fit]
COc1ccc2c(c1)C13CCCC[C@@H]1C(C2)N(C)CC3 (stereo not given in full)	–	inconclusive [inhibitor, single point]
CCC1(CC)N=C(c2ccccc2)C(=S)N1	–	inconclusive [inhibitor, single point]
CC(C)CC(=O)/C=C/n1c(=S)oc2ccccc21	–	inconclusive [inhibitor, single point]
CC(=O)Oc1ccc(C(=O)Nc2ccccc2C(=O)Nc2ccc(C(=O)O)cc2)cc1	inactive: -3.78%	–
NC(=O)C1CCN(c2nc(-c3cc4ccccc4o3)cs2)CC1	–	inconclusive [inhibitor, single point]
CCOc1ccc(Nc2nc(NCc3ccco3)nc(N)c2[N+](=O)[O-])cc1	–	inconclusive [inhibitor, single point]
CCOc1ccccc1-n1nnnc1SCC(=O)NC(=O)Nc1ccc2c(c1)OCCO2	inactive: 8.06%	–
COc1ccccc1S(=O)(=O)Nc1cc(S(=O)(=O)N2CCCCC2)ccc1N1CCOCC1	–	inconclusive [inhibitor, single point]
O=C(Nc1c(C(=O)N2CCOCC2)cnn1-c1ccccc1)c1ccco1	inactive: -7.44%	–
CCC(=O)N1N=C(c2c(-c3ccccc3)c3cc(Cl)ccc3[nH]c2=O)CC1c1ccco1 (stereo not given)	–	active: 10.4 µM
CCOC(=O)N1CCC(NC(=O)C2CCN(C(=O)c3cc4sccc4n3CC)CC2)CC1	–	inconclusive [inhibitor, partial curve]
